What was measured:
[1] = target: T1, cynomolgus FcRn (Biorbyt, cat. no. orb99075) (cynomolgus, UniProt Q8SPV9 24-297; Q8SPW0 21-119, limits assumed); experiment: Biacore, cFcRn immobilized (1098 RU), 90 nM His6-tagged Z variant, pH 6.0
T1 construct: Bought protein, immobilised on a CM5 chip; also called cFcRn

[2] = target: T2, human FcRn-eGFP on transduced HeLa cells (human, UniProt P55899 24-365; P16213 partial chain); experiment: flow cytometry, hFcRn-eGFP HeLa cells, blocks Alexa647-hIgG, pH 6.0
T2 construct: Fixed, saponin-permeabilised HeLa cells; also called hFcRn-eGFP; hFcRn; not shown: eGFP at the cytoplasmic tail

T1 sequence (Q8SPV9 24-297 limits assumed, chain 1 of 2): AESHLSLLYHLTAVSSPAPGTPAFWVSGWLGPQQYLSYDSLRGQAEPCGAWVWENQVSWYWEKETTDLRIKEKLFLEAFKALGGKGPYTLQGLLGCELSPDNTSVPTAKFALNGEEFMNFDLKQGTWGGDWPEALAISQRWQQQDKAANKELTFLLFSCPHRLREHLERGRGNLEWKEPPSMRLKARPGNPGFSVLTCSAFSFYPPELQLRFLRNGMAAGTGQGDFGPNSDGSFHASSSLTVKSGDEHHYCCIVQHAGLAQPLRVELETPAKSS
T1 sequence (Q8SPW0 21-119 limits assumed, chain 2 of 2, further chain): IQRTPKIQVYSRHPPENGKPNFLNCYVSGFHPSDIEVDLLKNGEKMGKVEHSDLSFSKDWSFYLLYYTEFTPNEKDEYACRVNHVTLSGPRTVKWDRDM

| binding result [1] | IC50 [2] [nM] | Binder |
| --- | --- | --- |
| binds | – | His6-tagged Z18633 (designed binder, not shown: N-terminal His6 tag) AEAKFAKEWQQAAHEIRWLPNLTFDQRVAFIHKLRDDPSQSSELLSEAKKLSESQAPK |
| – | 57 | His6-tagged Z18633 (designed binder, Y5F, N52S, D53E and N-terminal AE; not shown: N-terminal His6-tag) AEAKFAKEWQQAAHEIRWLPNLTFDQRVAFIHKLRDDPSQSSELLSEAKKLSESQAPK |

Reference: patent US20190284241A1 (Affibody, published 2019)
